# The other results are listed elsewhere or left out.
# Key:
# Test in all cases: glycan array binding signal (z-score within array); higher = stronger binding
# Conditions in all cases: glycan notation: IUPAC condensed, linker removed
# [1] = target: Neu5Ac(a2-6)GalNAc(b1-4)GlcNAc6S
# Summary of the method: (§1)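 Glycan array data came from 3228 arrays in the Consortium for Functional Glycomics database, and only arrays with an available protein sequence were kept. Glycan names were put into IUPAC-condensed notation, and columns mapping to the same glycan were averaged. The binding signal is a within-array Z-score, averaged across arrays of one protein sequence run at different concentrations or buffers and across linkers. A negative Z-score can be read as non-binding.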
# [2] = target: Neu5Ac(a2-6)GlcNAc(b1-4)GlcNAc
# Summary of the method: as §1
# [3] = target: Neu5Ac(a2-6)GlcNAc(b1-4)GlcNAc(b1-4)GlcNAc
# Summary of the method: as §1
# Neu5Ac(a2-8)Neu5Ac = target: Neu5Ac(a2-8)Neu5Ac
# Summary of the method: as §1
# [4] = target: Neu5Ac(a2-8)Neu5Ac(a2-3)Gal(b1-3)GalNAc(b1-4)[Neu5Ac(a2-8)Neu5Ac(a2-3)]Gal(b1-4)Glc
# Summary of the method: as §1
# [5] = target: Neu5Ac(a2-8)Neu5Ac(a2-3)Gal(b1-4)Glc
# Summary of the method: as §1
# [6] = target: Neu5Ac(a2-8)Neu5Ac(a2-3)[Gal(b1-3)GalNAc(b1-4)]Gal(b1-4)Glc
# Summary of the method: as §1
# [7] = target: Neu5Ac(a2-8)Neu5Ac(a2-3)[GalNAc(b1-4)]Gal(b1-4)Glc
# Summary of the method: as §1
# [8] = target: Neu5Ac(a2-8)Neu5Ac(a2-8)Neu5Ac
# Summary of the method: as §1
# [9] = target: Neu5Ac(a2-8)Neu5Ac(a2-8)Neu5Ac(a2-3)Gal(b1-4)Glc
# Summary of the method: as §1
# [10] = target: Neu5Ac(a2-8)Neu5Ac(a2-8)Neu5Ac(a2-3)[GalNAc(b1-4)]Gal(b1-4)Glc
# Summary of the method: as §1
# [11] = target: Neu5Ac(a2-8)Neu5Ac(a2-8)Neu5Ac(a2-8)Neu5Ac(a2-3)[GalNAc(b1-4)]Gal(b1-4)Glc
# Summary of the method: as §1
# [12] = target: Neu5Ac(b2-6)Gal(b1-4)GlcNAc
# Summary of the method: as §1
# Neu5Ac(b2-6)GalNAc = target: Neu5Ac(b2-6)GalNAc
# Summary of the method: as §1
# [13] = target: Neu5Ac9Ac(a2-3)Gal(b1-3)GlcNAc
# Summary of the method: as §1
# [14] = target: Neu5Ac9Ac(a2-3)Gal(b1-4)GlcNAc
# Summary of the method: as §1
# [15] = target: Neu5Ac9Ac(a2-6)Gal(b1-4)GlcNAc
# Summary of the method: as §1
# [16] = target: Neu5Gc(a2-3)Gal(b1-3)GlcNAc
# Summary of the method: as §1
# [17] = target: Neu5Gc(a2-3)Gal(b1-3)[Fuc(a1-4)]GlcNAc
# Summary of the method: as §1
# Neu5Gc(a2-3)Gal(b1-4)Glc = target: Neu5Gc(a2-3)Gal(b1-4)Glc
# Summary of the method: as §1
# [18] = target: Neu5Gc(a2-3)Gal(b1-4)GlcNAc
# Summary of the method: as §1
# [19] = target: Neu5Gc(a2-3)Gal(b1-4)[Fuc(a1-3)]GlcNAc
# Summary of the method: as §1
# [20] = target: Neu5Gc(a2-6)Gal(b1-4)GlcNAc
# Summary of the method: as §1
# Neu5Gc(a2-6)GalNAc = target: Neu5Gc(a2-6)GalNAc
# Summary of the method: as §1
# [21] = target: Neu5Gc(b2-6)Gal(b1-4)GlcNAc
# Summary of the method: as §1
binder,measurement,setting,value
Morniga (Morus nigra) (protein) MAGTSTNTQTTGTSQTVEVGLWGGPGGNAWDDGSYTGIREINLSHGDAIGAFSVIYDLNGQPFTGPTHPGNEPSFKTVKITLDFPNEFLVSVSGYTGVLPRLATGKDVIRSLTFKTNKKTYGPYGKEEGTPFSLPIENGLIVGFKGRSGFVVDAIGVHLS,glycan array binding signal (z-score),[1],-0.328
same,glycan array binding signal (z-score),[2],-0.339
same,glycan array binding signal (z-score),[3],-0.331
same,glycan array binding signal (z-score),Neu5Ac(a2-8)Neu5Ac,-0.332
same,glycan array binding signal (z-score),[4],-0.328
same,glycan array binding signal (z-score),[5],-0.334
same,glycan array binding signal (z-score),[6],-0.327
same,glycan array binding signal (z-score),[7],-0.349
same,glycan array binding signal (z-score),[8],-0.343
same,glycan array binding signal (z-score),[9],-0.334
same,glycan array binding signal (z-score),[10],-0.328
same,glycan array binding signal (z-score),[11],-0.333
same,glycan array binding signal (z-score),[12],-0.325
same,glycan array binding signal (z-score),Neu5Ac(b2-6)GalNAc,-0.332
same,glycan array binding signal (z-score),[13],-0.338
same,glycan array binding signal (z-score),[14],-0.334
same,glycan array binding signal (z-score),[15],-0.326
same,glycan array binding signal (z-score),[16],-0.34
same,glycan array binding signal (z-score),[17],-0.343
same,glycan array binding signal (z-score),Neu5Gc(a2-3)Gal(b1-4)Glc,-0.314
same,glycan array binding signal (z-score),[18],-0.341
same,glycan array binding signal (z-score),[19],-0.327
same,glycan array binding signal (z-score),[20],-0.342
same,glycan array binding signal (z-score),Neu5Gc(a2-6)GalNAc,-0.338
same,glycan array binding signal (z-score),[21],-0.327

# Reference: the supplement of paper PMC8728848
